For 153 variants, enrichment ratio results are on record in a collection of fitness landscapes (doi:10.1126/science.1257360).

Some of the results follow.

First the molecules themselves.
B1: PhoQ; a variant is named by its letters at X, in order, P23837 (parent)
chain: MKKLLRLFFPLSLRVRFLLATAAVVLVLSLAYGMVALIGYSVSFDKTTFRLLRGESNLFYTLAKWENNKLHVELPENIDKQSPTMTLIYDENGQLLWAQRDVPWLMKMIQPDWLKSNGFHEIEADVNDTSLLLSGDHSIQQQLQEVREDDDDAEMTHSVAVNVYPATSRMPKLTIVVVDTIPVELKSSYMVWSWFIYVLSANLLLVIPLLWVAAWWSLRPIEALAKEVRELEEHNRELLNPATTRELTSLVRNLNRLLKSERERYDKYRTTLTDLTHSLKTPLXXLQXXLRSLRSEKMSVSDAEPVMLEQISRISQQIGYYLHRASMRGGTLLSRELHPVAPLLDNLTSALNKVYQRKGVNISLDISPEISFVGEQNDFVEVMGNVLDNACKYCLEFVEISARQTDEHLYIVVEDDGPGIPLSKREVIFDRGQRVDTLRPGQGVGLAVAREITEQYEGKIVAGESMLGGARMEVIFGRQHSAPKDE

Variants of B1 are the subject of this assay. Nature of the assay: enrichment ratio after two sorts for PhoP signalling (ratio (wild type AVST 3.29)); higher = more functional. Conditions: with PhoP (E. coli).
On to RKRF, for which the enrichment ratio was ≤ 0.25. Consider GSRL, for which the enrichment ratio was ≤ 0.25. For PTKL, the enrichment ratio was ≤ 0.25. On to AMMA, for which the enrichment ratio was ≤ 0.25. Consider SALK, for which the enrichment ratio is 15.2.

In the case of TDWC, the enrichment ratio is ≤ 0.25. As for KTMC, the figure is ≤ 0.25; as for GYAF, ≤ 0.25; as for EFTM, ≤ 0.25. With GTMV the figure was 7.05.

SKYN: the enrichment ratio is ≤ 0.25. Take PTNA: the enrichment ratio is ≤ 0.25. For the variant IYYT, the enrichment ratio was ≤ 0.25. In the case of SAYW, the enrichment ratio is ≤ 0.25.

On to IYAP, for which the enrichment ratio was ≤ 0.25. Take FRGF: the enrichment ratio is ≤ 0.25.

For the variant SDRF, the enrichment ratio was ≤ 0.25. As for TWNF, the figure is ≤ 0.25. FIPW: the enrichment ratio was ≤ 0.25. EFDL: the enrichment ratio was ≤ 0.25.

As for FTWI, the enrichment ratio was ≤ 0.25. For VEYK, the enrichment ratio was ≤ 0.25. QNDY: the enrichment ratio was ≤ 0.25.

For the variant NIFA, the enrichment ratio was ≤ 0.25. On to FCVH, for which the enrichment ratio is ≤ 0.25.

For QCPY, the enrichment ratio is ≤ 0.25. Turning to RFTI, the enrichment ratio is ≤ 0.25. For NFCN, the enrichment ratio was ≤ 0.25. As for TRHI, the figure is ≤ 0.25; as for DCGY, ≤ 0.25; as for GCSI, 4.63. With NSIW the figure was ≤ 0.25; with FDFV, ≤ 0.25; with GLMT, ≤ 0.25. On to VKDQ, for which the enrichment ratio is ≤ 0.25. As for RTCQ, the figure is ≤ 0.25. Consider HHFK, for which the enrichment ratio was ≤ 0.25. In the case of ADNT, the enrichment ratio was ≤ 0.25.

For the variant LPVG, the enrichment ratio was ≤ 0.25. In the case of RFTV, the enrichment ratio was ≤ 0.25.

As to QLKV, the enrichment ratio is ≤ 0.25. With SMQF the figure was ≤ 0.25. As to SETH, the enrichment ratio stood at 15.6. For the variant PFET, the enrichment ratio was ≤ 0.25. As for GAFH, the enrichment ratio is ≤ 0.25. On to TMPN, for which the enrichment ratio was ≤ 0.25. As for PFSE, the figure is ≤ 0.25; as for IDGR, ≤ 0.25. Turning to PRDH, the enrichment ratio was ≤ 0.25. STII: the enrichment ratio was determined as 8.73.

With PGTN, the enrichment ratio is ≤ 0.25. For KTKP, the enrichment ratio is ≤ 0.25. Turning to IVHV, the enrichment ratio is ≤ 0.25. On to HNCL, for which the enrichment ratio was ≤ 0.25. Regarding HYKT, the enrichment ratio was ≤ 0.25. Regarding WARW, the enrichment ratio was ≤ 0.25. For KDRV, the enrichment ratio is ≤ 0.25. Regarding TLHV, the enrichment ratio was ≤ 0.25. As for RSRP, the figure is ≤ 0.25; as for GEGA, ≤ 0.25.

RRWR: the enrichment ratio is ≤ 0.25. For NAHH, the enrichment ratio was ≤ 0.25. For IVTP, the enrichment ratio is ≤ 0.25. With RMNH, the enrichment ratio was ≤ 0.25. On to HAFT, for which the enrichment ratio is ≤ 0.25. As for QKFV, the enrichment ratio is 5.12. For the variant HHTM, the enrichment ratio was ≤ 0.25. As for HQEP, the figure is ≤ 0.25.

With RACT, the enrichment ratio is ≤ 0.25.

Take NYLW: the enrichment ratio is ≤ 0.25. THCT: the enrichment ratio was 10.5.

In the case of GINW, the enrichment ratio is ≤ 0.25. Regarding IYLD, the enrichment ratio is ≤ 0.25. As to LIPS, the enrichment ratio was ≤ 0.25. Consider GSTM, for which the enrichment ratio turned out to be 6.87. As for PFVK, the enrichment ratio was ≤ 0.25.

For DTYG, the enrichment ratio was ≤ 0.25. On to HEFG, for which the enrichment ratio is ≤ 0.25. Take GQFV: the enrichment ratio is ≤ 0.25. As to WLCG, the enrichment ratio is ≤ 0.25. As for FDLY, the figure is ≤ 0.25; as for RFKD, ≤ 0.25; as for VMYY, ≤ 0.25.

On to TEGG, for which the enrichment ratio came out at 5.71. For AWVP, the enrichment ratio was ≤ 0.25. Take WGFE: the enrichment ratio is ≤ 0.25. LRMH: the enrichment ratio is ≤ 0.25. With RESI, the enrichment ratio was ≤ 0.25. Take WQCP: the enrichment ratio is ≤ 0.25.

Turning to SVNS, the enrichment ratio worked out at 0.619. IMNV: the enrichment ratio is ≤ 0.25. As for FSYK, the enrichment ratio is ≤ 0.25. Consider KLDK, for which the enrichment ratio is ≤ 0.25.

With HMVW, the enrichment ratio was ≤ 0.25. For the variant CQST, the enrichment ratio worked out at 8.98. Regarding NGMR, the enrichment ratio was ≤ 0.25. Turning to WTHV, the enrichment ratio was ≤ 0.25.

Consider NGML, for which the enrichment ratio is ≤ 0.25. With ARGD the figure was ≤ 0.25; with KRIM, ≤ 0.25. GFHV: the enrichment ratio is ≤ 0.25. Regarding FEIW, the enrichment ratio was found to be 1.43.

Take DCCL: the enrichment ratio is ≤ 0.25. Turning to NEMN, the enrichment ratio was ≤ 0.25. Turning to SYIP, the enrichment ratio is ≤ 0.25. Take IMVN: the enrichment ratio is ≤ 0.25.

As to QPTA, the enrichment ratio is ≤ 0.25. For the variant TCDT, the enrichment ratio was ≤ 0.25. Take KINC: the enrichment ratio was ≤ 0.25.

Turning to RRWD, the enrichment ratio was ≤ 0.25. For the variant QACV, the enrichment ratio is ≤ 0.25. On to GLWH, for which the enrichment ratio is ≤ 0.25.

On to IQTY, for which the enrichment ratio is ≤ 0.25. As for LHFG, the figure is ≤ 0.25; as for WVMR, ≤ 0.25; as for YYAL, ≤ 0.25. As to TDGK, the enrichment ratio is ≤ 0.25. As to LMLE, the enrichment ratio was ≤ 0.25. As to YIFH, the enrichment ratio was ≤ 0.25.

Consider LMTA, for which the enrichment ratio is ≤ 0.25. Consider QMYI, for which the enrichment ratio stood at 2.84. With PAIM the figure was ≤ 0.25; with GSFY, ≤ 0.25; with FTKG, ≤ 0.25. Take AYEW: the enrichment ratio was ≤ 0.25. As to YYHV, the enrichment ratio is ≤ 0.25. Take SVLV: the enrichment ratio was determined as 3.5. With KHWT the figure was ≤ 0.25; with HLSW, ≤ 0.25; with RWQA, ≤ 0.25. With VYPP the figure was ≤ 0.25.

With NHQF, the enrichment ratio is ≤ 0.25. Consider QVTS, for which the enrichment ratio was ≤ 0.25. For TVYY, the enrichment ratio was ≤ 0.25. With RYQY the figure was ≤ 0.25.

In the case of KCIW, the enrichment ratio is ≤ 0.25. As for FTLK, the figure is 0.303. For QYRH, the enrichment ratio was ≤ 0.25. DPCC: the enrichment ratio was ≤ 0.25. As to ISQE, the enrichment ratio was ≤ 0.25. QMQD: the enrichment ratio is ≤ 0.25. For the variant RRVC, the enrichment ratio is ≤ 0.25. As for RHMC, the figure is ≤ 0.25.

For LGNW, the enrichment ratio is ≤ 0.25. APMF: the enrichment ratio was ≤ 0.25.

As to ASGI, the enrichment ratio came to 3.31. Take ASMI: the enrichment ratio amounted to 13.5. With KGCH, the enrichment ratio is ≤ 0.25. Regarding PYWA, the enrichment ratio was ≤ 0.25. Consider ETLS, for which the enrichment ratio is ≤ 0.25. For QPFE, the enrichment ratio was ≤ 0.25. As to GQLR, the enrichment ratio was ≤ 0.25. As to FFDT, the enrichment ratio is ≤ 0.25.
